Our source for the AUC and IC50 values is the supplement of paper PMC4967469.

A lower IC50 marks a more sensitive line; a fit beyond the top or the lowest dose is shown as a bound at that dose. For AUC the same curve is integrated over the 256-fold range of doses and scaled to a fraction; values near 1 show little effect. For part of these data: A top dose marked as inferred was calculated from the reported fits. For part of these data: Where an entry number is given, a second screen of the drug exists; the two often differ. Some results are limits rather than exact numbers.

Common to all, as to assay: Viability of human cancer cell lines after 72 h of drug (GDSC screen)
Compound in one test: CCCC(=O)OCc1ccc(OC(=O)/C=C(C)/C=C/C=C(C)/C=C/C2=C(C)CCCC2(C)C)cc1 [VNLG/124]
The conditions noted are these: top dose 5.12 µM; top dose inferred. The procedure: (§1)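 Human cancer cell lines in 384-well plates, medium with 10% serum, drug for 72 h over a 256-fold dose range (nine 2-fold or five 4-fold steps up to the top dose). Adherent lines were fixed and stained with the nucleic acid dye Syto60, suspension lines read with resazurin; signal relative to control wells, capped at 0 and 100%. One two-parameter sigmoid per drug and line, fitted in a mixed model over all curves with the slope shared within a line.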

Compound in the next test: CN(NC(=O)CC(=O)NN(C)C(=S)c1ccccc1)C(=S)c1ccccc1 [Elesclomol]
The settings on record: top dose 0.2 µM; top dose inferred. How it is done: as §1

Compound in a further test: Cc1c(N)nc([C@H](CC(N)=O)NC[C@H](N)C(N)=O)nc1C(=O)N[C@H](C(=O)N[C@H](C)[C@@H](O)[C@H](C)C(=O)N[C@H](C(=O)NCCc1nc(-c2nc(C(=O)NCCC[S+](C)C)cs2)cs1)[C@@H](C)O)[C@@H](OC1OC(CO)C(O)C(O)C1OC1OC(CO)C(O)C(OC(N)=O)C1O)c1cnc[nH]1 [Bleomycin]
The procedure: as §1

Compound in a further test: Cc1ccc(NC(=O)c2ccc(CN3CCN(C)CC3)cc2)cc1Nc1nc(-c2cccnc2)cs1 [Masitinib]
The settings on record: top dose 20 µM. How it is done: as §1

Compound in another test: O=C(/C=C/c1ccc(CN(CCO)CCc2c[nH]c3ccccc23)cc1)NO [LAQ824]
The settings on record: top dose 1.024 µM; top dose inferred. The procedure:
as §1

Compound in another test: O=C(Nc1ccc(OC(F)(F)F)cc1)c1sccc1NCc1ccnc2ccccc12 [OSI-930]
The conditions noted are these: top dose 10.24 µM. The procedure:
as §1

Compound in another test: O=C(Nc1cccc(Nc2ncc(Br)c(NCCc3cnc[nH]3)n2)c1)N1CCCC1 [BX-912]
The settings on record: top dose 10.24 µM; top dose inferred. The procedure:
as §1

Compound in a further test: O=S(=O)(O)c1ccc2cc(N=Nc3cc(S(=O)(=O)O)c4cccnc4c3O)ccc2c1 [NSC-87877]
The conditions noted are these: top dose 16 µM; top dose inferred. How it is done: as §1

Setting [1] is: top dose 64 µM, screen: GDSC drug entry 190.
The mark [2] stands for this setting: top dose 50 µM, screen: GDSC drug entry 1378, top dose inferred.

In the case of PA-1 (ovary, adherent), the AUC in the test with VNLG/124 amounted to 0.993; with Elesclomol, 0.53; with Bleomycin (setting [1]), 0.385; with Masitinib it was 0.897; in the test with LAQ824, 0.291; in the test with OSI-930 it was 0.831. For the same cell line, the AUC in the test with BX-912 stood at 0.539; with NSC-87877, 0.992. Also, the half-maximal inhibitory concentration (IC50) – broadly, the midpoint of a concentration-inhibition curve – is over 5.12 µM in the test with VNLG/124; 0.0148 µM with Elesclomol; 2.08 µM in the test with Bleomycin (setting [1]); 15.3 µM with Masitinib; 0.0192 µM with LAQ824; 4.63 µM with OSI-930. For the same cell line, the IC50 with BX-912 was 0.796 µM; with NSC-87877 it was over 16 µM.

MG-63 (osteosarcoma, adherent): the AUC with VNLG/124 is 0.981; with Elesclomol, 0.946; with Bleomycin (setting [2]), 0.656; in the test with Bleomycin (setting [1]) it was 0.355; with Masitinib it was 0.984; with LAQ824, 0.443. The AUC with OSI-930 is 0.983; with BX-912 it was 0.984; in the test with NSC-87877, 0.956. Moreover, the IC50 in the test with VNLG/124 is over 5.12 µM; in the test with Elesclomol it was over 0.2 µM; in the test with Bleomycin (setting [2]), 9.09 µM; with Bleomycin (setting [1]) it was 1.48 µM; with Masitinib it was over 20 µM; with LAQ824, 0.0437 µM. For the same cell line, the IC50 was over 10.2 µM with OSI-930, over 10.2 µM in the test with BX-912 and over 16 µM with NSC-87877.

Regarding “NCI-H647 (non-small cell lung carcinoma, adherent)”, the AUC with VNLG/124 was determined as 0.965; with Elesclomol, 0.71; with Bleomycin (setting [2]), 0.139; in the test with Bleomycin (setting [1]), 0.497; with Masitinib, 0.79; with LAQ824, 0.62. For the same cell line, the AUC amounted to 0.951 in the test with OSI-930, 0.794 with BX-912 and 0.985 in the test with NSC-87877. The IC50 was over 5.12 µM with VNLG/124; 0.0505 µM in the test with Elesclomol; 0.213 µM with Bleomycin (setting [2]); 3.92 µM with Bleomycin (setting [1]); 9.36 µM with Masitinib; 0.139 µM in the test with LAQ824. Also, the 50% inhibitory concentration (IC50) with OSI-930 is over 10.2 µM; with BX-912, 4.98 µM; with NSC-87877 it was over 16 µM.

With MY-M12 (leukaemia, suspension), the AUC with VNLG/124 is 0.973; in the test with Elesclomol, 0.777; in the test with Bleomycin (setting [1]), 0.502; with Masitinib, 0.858; with LAQ824 it was 0.237; in the test with OSI-930, 0.977. In addition, the AUC came out at 0.489 with BX-912 and 0.978 in the test with NSC-87877. Besides, the IC50 is over 5.12 µM in the test with VNLG/124; 0.0911 µM in the test with Elesclomol; 4.05 µM in the test with Bleomycin (setting [1]); 19.9 µM in the test with Masitinib; 0.00984 µM with LAQ824; over 10.2 µM with OSI-930. In addition, the values for the half-inhibitory concentration (IC50) with BX-912 and in the test with NSC-87877 were 0.596 µM and over 16 µM, respectively.

On to GCIY (stomach, adherent), for which the AUC with VNLG/124 was 0.979; with Elesclomol, 0.906; in the test with Bleomycin (setting [1]) it was 0.632; in the test with Masitinib, 0.869; with LAQ824 it was 0.404; in the test with OSI-930 it was 0.97. In addition, the AUC was 0.973 with BX-912 and 0.98 with NSC-87877. Moreover, the IC50 is over 5.12 µM in the test with VNLG/124; over 0.2 µM with Elesclomol; 9.75 µM in the test with Bleomycin (setting [1]); over 20 µM with Masitinib; 0.0337 µM in the test with LAQ824; over 10.2 µM with OSI-930. Moreover, the IC50 in the test with BX-912 was over 10.2 µM; with NSC-87877 it was over 16 µM.

In the case of A431 (skin, adherent), the AUC with VNLG/124 was 0.979; with Elesclomol it was 0.764; with Bleomycin (setting [2]), 0.32; with Bleomycin (setting [1]), 0.33; in the test with Masitinib, 0.875; with LAQ824, 0.361. For the same cell line, the AUC in the test with OSI-930 was 0.884; with BX-912, 0.786; with NSC-87877, 0.967. The IC50 in the test with VNLG/124 is over 5.12 µM; with Elesclomol it was 0.0697 µM; with Bleomycin (setting [2]) it was 1.01 µM; in the test with Bleomycin (setting [1]) it was 1.38 µM; with Masitinib, 18.1 µM; in the test with LAQ824, 0.027 µM. Also, the IC50 with OSI-930 was over 10.2 µM; in the test with BX-912 it was 4.23 µM; with NSC-87877, over 16 µM.

For the cell line HCC70 (breast, adherent), the AUC with VNLG/124 came out at 0.988; with Elesclomol, 0.842; with Bleomycin (setting [2]), 0.891; with Bleomycin (setting [1]), 0.87; in the test with Masitinib it was 0.893; with LAQ824, 0.497. The AUC in the test with OSI-930 amounted to 0.984; with BX-912, 0.838; in the test with NSC-87877, 0.988. Further, the IC50 with VNLG/124 was over 5.12 µM; with Elesclomol, 0.137 µM; with Bleomycin (setting [2]) it was over 50 µM; with Bleomycin (setting [1]), 57.6 µM; in the test with Masitinib it was over 20 µM; with LAQ824, 0.0627 µM. The IC50 is over 10.2 µM with OSI-930, 6.77 µM with BX-912 and over 16 µM with NSC-87877.

Take “MOLM-13 (acute myeloid leukaemia, suspension)”: the AUC in the test with VNLG/124 amounted to 0.684; with Elesclomol it was 0.983; with Bleomycin (setting [2]), 0.561; with Bleomycin (setting [1]) it was 0.692; with Masitinib, 0.656; with LAQ824, 0.307. Also, the AUC in the test with OSI-930 was determined as 0.588; with BX-912 it was 0.029; with NSC-87877, 0.982. Besides, the IC50 with VNLG/124 is 1.01 µM; with Elesclomol, over 0.2 µM; with Bleomycin (setting [2]), 4.55 µM; in the test with Bleomycin (setting [1]) it was 13.3 µM; with Masitinib, 3.29 µM; with LAQ824, 0.0192 µM. Besides, the IC50 was 1.1 µM with OSI-930, under 0.04 µM in the test with BX-912 and over 16 µM with NSC-87877.
